Paper PMC5864733 (Nature Communications, 2018)

Biological target: the molecule itself
Assay: SEC

B1: CesT-Cdel (residues 1-145) (domain or fragment)
chain: MSSRSELLLDRFAEKIGVGSISFNENRLCSFAIDEIYYISLSDANDEYMMIYGVCGKFPTDNPNFALEILNANLWFAENGGPYLCYESGAQSLLLALRFPLDDATPEKLENEIEVVVKSMENLYLVLHNQGITLENEHMKIEEIS
notes: source: E. coli BL21(DE3), purified (Ni-NTA, gel filtration); not shown: His6, N-terminal, kept
- stoichiometry N: 2
